In the RNAGym collection of RNA variant scans (doi:10.1073/pnas.2313332121):
This sample is rich in variants without activity.

B1: TPR 5TU (parent)
chain: GGAUCUUCUCGAUCUAACAAAAAAGACAAAUCUGCCACAAAGCUUGAGAGCAUCUUCGGAUGCAGAGGCGGCAGCCUUCGGUGGCGCGAUAGCGCCAACGUUCUCAACUAUGACACGCAAAACGCGUGCUCCGUUGAAUGGAGUUUAUCAUG

Variants of: B1
Test: polymerase ribozyme fitness, log enrichment relative to wild type (log ratio); higher = more active; in vitro selection for triplet polymerase activity
In short: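 Streptavidin-bead capture of gel-excised extended constructs, followed by RT-PCR, closed a single triplicate in vitro selection round. That round began by annealing PCR-built, transcribed mutant libraries of each subunit of a heterodimeric triplet polymerase ribozyme with a biotinylated primer, the partner subunit and triplets, then incubating them frozen at −7 °C. After Illumina sequencing of inputs and outputs, genotypes needed ≥10 input reads and ≥1 read per output. Fitness is the base-2 logarithm of genotype enrichment over wild-type enrichment, using inverse-variance-weighted replicate averages.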

Polymerase ribozyme fitness (log ratio), ≤ -4.2:
GGAUGUUCUCGAUCUAACAAAAAAGUCAAAUCUGCCACAAAGCUUGAGAGCAUCUUCCGAUGCAGAGGCGGCAGCCUUCGGUGGCGCGAUAGCGCCAACGAUCUCAACUAUGACACGCAAAACGCGUGCUCCGUAGAAUGGAGUUUAUCAUG [C5G A26U G58C U101A U135A]
GGAUGUUCUCGAUCUAACAAAAAAGUCAAAUCUGCCACAAAGCUUGAGAGCAUCUACGGAUGCAGAGGCGGCAGCCUUCGGUGGGGCGAUAGCGCCAACGUUCUCAAAUAUGACACGCAAAACGCGUGCUCCGUUGAAUGGAGUUUAUCAUG [C5G A26U U56A C85G C108A]
GGAUGUUCUCGAUCUAACAAAAAAGACUAAUCUGCCACACCGCUUGAGAGCAUCUUCGGAUGCAGAGGCGGCAGCCUUGGGUGGCGCGAUAGCUCAAACGUUCUCAACUAUGACACGCAAAACGCGUGCUCCGUUGAAUGGUUUUUAUCAUG [C5G A28U A40C A41C C79G G94U C96A A142U G143U]
GGAUGUUCUCGAUCUAACAAAAAAGACACAUCUGCCACAAAGCUUGAGAGCAUCUUCGGAUGCAGAGGCCGCAGCCUUCGGUGGCGCGAUAGCGCCAACGUUCUCAACUAUGACACGAAAAACGCGUGGUCCGUUGAAUGGCGUUUAUCAUG [C5G A29C G70C C118A C129G A142C]
GGAUGUUCUCGAUCUAACAAAAAAGACAGAUCUGCCACAAAGCUUUAGAGCAUCUUCGGGUGCAGAGGCGGCAGCCUUCGGUGGCGCGAUAGCGCCAACGUUCUCAACUAUGACACGCAAAACGCGUGCUCCGUUGAAUGGAGUUUAUCAUG [C5G A29G G46U A60G]
GGAUGUUCUCGAUCUAACAAAAAAGACAUAUCUGCCACAAAGCUUGUGAACAUCUUCGGAUGCAGAGGCGGCAGCCUUCGGUGGCGAGGUAGCGCCAACGUUCUCAACUAUGACACGCAAAACGGGUGCUCCGUUGAAUGGAGUUUAUCAUG [C5G A29U A47U G50A C87A A89G C125G]
GGAUGUUCUCGAUCUAACAAAAAAGACAUAUAUGCCACAAAGCUUGAGAGCAUCUUCGGAUGCAGAGGCGGCAGCCUUGGGUGGGGCGAUAGCGCCAACGUUCUCAACUAUGACACGCAAAACGCGUGCUCUGUUGAAUGGAGUUUUUCAUG [C5G A29U C32A C79G C85G C132U A147U]
GGAUGUUCUCGAUCUAACAAAAAAGACAACUCUGCAACAAAGCUUGAGAGCAUCUUCGGAUGCAGAGGCGGCAGCCUUUGGUGGCGCGAUAGAGCCAACGUUCUGAACUAUGACACGCAAAACGCGUGCUCCGCUGAAUGGAAUUUAUCAUG [C5G A30C C36A C79U C93A C105G U134C G143A]
GGAUGUUCUCGAUCUAACAAAAAAGACAACUCUGCCACAAAGCUUGAGAGCAUCUUCGGAUGCAGAGGCGGCAGCCUUCGUUGGCGCGAUAGCGCCAACGUUCUCAACUAUGACACGCAAAACGCGUGCUCCGUUGACUGGAGCUUAUCAUG [C5G A30C G81U A138C U144C]
GGAUGUUCUCGAUCUAACAAAAAAGACAACUCUGCCACAAAGCUUGAGAGCAUCUUCGGAAGCAGAGGCGGCAGCCUUCGGUGGCGCGAUAGCGCCAACGUUCUCAACUAUGACACGCAAAACGCGUGCUCCGUUGAAUGGACUUUAUCAAG [C5G A30C U61A G143C U151A]
GGAUGUUCUCGAUCUAACAAAAAAGACAAGUCUGCCACAAAGCUUGAGAGCAUCUUCGGAUGCAGAGGCGGCAGCCUUCGGUGGCGCGAUUGCGCCAACGUUCUCAACUAUGACACGCAGAACGCGUGCUCCGUUGAAUGGAGUUUAUCAUG [C5G A30G A91U A120G]
GGAUGUUCUCGAUCUAACAAAAAAGACAAGUCUGCUACAAAGCUUGAGGGCAUCUGCGGAUGCAGAGGCGGCAGCCUUCGGUGGCGAGAUAGCGCCAACGUUCUCAACUAUGACACGCAAAACGCGUGCUCCGUUGAAUGGAGUUUAUCAUG [C5G A30G C36U A49G U56G C87A]
GGAUGUUCUCGAUCUAACAAAAAAGACAAGUCUGCCACAAAACUUGAGAGUAUCUUCGGAUGCAGAGGCGGCAGCCUUCGGUGGCGCGAUAACGCCAAUGUUCUCAACUAUGACACGCAAAACGCGUGCUCCGUUGAAUAGAGUUUAUCAUG [C5G A30G G42A C51U G92A C99U G140A]
GGAUGUUCUCGAUCUAACAAAAAAGACAAAUCUGCCCCAGAGCUUGAGAGCAUCUUCGGAUGCAGAGGCGGCAGCCUUCGGUGACGCGAUAGCGCCAACGUUCUCAACUAUGACACGCAAAACGCGUGCUCCGUUGAAUGUAGUUUAUCAUG [C5G A37C A40G G84A G141U]
GGAUGUUCUCGAUCUAACAAAAAAGACAAAUCUGCCACGAAGCUUGAGAGUAUCUUCGGAUGCAGAGGCGGCAGCCUUCGGUGGCGCGAUAGCGCCAACGUUCUCGACUAUGACACGCAAAACGCGUGCUCCGUUGAAUGGAGUUUAUCAUG [C5G A39G C51U A106G]
GGAUGUUCUCGAUCUAACAAAAAAGACAAAUCUGCCACAACGCUUCAGAGCAUCUUGGGUUGCAGAGCCGGCAGCCUUCGGUGGCGCGAUAGCGCCAACGUUCUCAACUAUGACACGCAAAACGCGUGCUCCGUAGAAUGAAGUUUAUCAUG [C5G A41C G46C C57G A60U G68C U135A G141A]
GGAUGUUCUCGAUCUAACAAAAAAGACAAAUCUGCCACAAAGCUUGCGAGCAUCUUCGGAUGCAGAGGCGGCGGCCUUCGGUGGCGCGAUAGGGCCAACGUUCUCAACUAUGACACGCAAAACGCGUGCUCCGUUGAAUGGGGUUUAUCAUG [C5G A47C A73G C93G A142G]
GGAUGUUCUCGAUCUAACAAAAAAGACAAAUCUGCCACAAAGCUUGAGGGCAUCUUUGAAUGCAGAGGCGGCAGCCUUCGGUUGCGCGAUAGCGCCAACGUGCUCAACUAUGACACGCAAAACGCGUGCUCCGUUGAAUGGAGUUUAUCAUG [C5G A49G C57U G59A G83U U102G]
GGAUGUUCUCGAUCUAACAAAAAAGACAAAUCUGCCACAAAGCUUGAGGGCAUCUUCGGAAGCAGAGGCGGCAGCCUUCGGUGGGGCGAUAGCGCCAACGUUCUCAACUAUGACACGCAAAACGCGUGCUCCGUUGAAUGGAGUUUAUCAUG [C5G A49G U61A C85G]
